{"source": "the supplement of paper PMC8728848", "assay_in_all_cases": "glycan array binding signal (z-score within array); higher = stronger binding", "conditions_in_all_cases": "glycan notation: IUPAC condensed, linker removed", "key": {"[1]": {"biological_target": "Neu5Ac(a2-3)[Neu5Ac(a2-6)]GalNAc", "method_in_brief": "(§1)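 Glycan array data were curated from 3228 arrays in the Consortium for Functional Glycomics database and kept only where the protein sequence was available. Glycan names were converted to IUPAC-condensed notation, and columns mapping to the same glycan were averaged. The binding signal is a within-array Z-score, averaged across arrays of the same protein sequence at different concentrations or buffers and across linkers. Negative Z-scores can be read as non-binding.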"}, "Neu5Ac(a2-6)Gal": {"biological_target": "Neu5Ac(a2-6)Gal", "method_in_brief": "as §1"}, "Neu5Ac(a2-6)Gal(b1-4)Glc": {"biological_target": "Neu5Ac(a2-6)Gal(b1-4)Glc", "method_in_brief": "as §1"}, "[2]": {"biological_target": "Neu5Ac(a2-6)Gal(b1-4)GlcNAc", "method_in_brief": "as §1"}, "[3]": {"biological_target": "Neu5Ac(a2-6)Gal(b1-4)GlcNAc(b1-2)Man(a1-3)[Gal(b1-4)GlcNAc(b1-2)Man(a1-6)]Man(b1-4)GlcNAc(b1-4)GlcNAc", "method_in_brief": "as §1"}, "[4]": {"biological_target": "Neu5Ac(a2-6)Gal(b1-4)GlcNAc(b1-2)Man(a1-3)[GlcNAc(b1-2)Man(a1-6)]Man(b1-4)GlcNAc(b1-4)GlcNAc", "method_in_brief": "as §1"}, "[5]": {"biological_target": "Neu5Ac(a2-6)Gal(b1-4)GlcNAc(b1-2)Man(a1-3)[GlcNAc(b1-2)Man(b1-4)GlcNAc(b1-2)Man(a1-6)]Man(b1-4)GlcNAc(b1-4)GlcNAc", "method_in_brief": "as §1"}, "[6]": {"biological_target": "Neu5Ac(a2-6)Gal(b1-4)GlcNAc(b1-2)Man(a1-3)[Neu5Ac(a2-6)Gal(b1-4)GlcNAc(b1-2)Man(a1-6)]Man(b1-4)GlcNAc(b1-4)GlcNAc", "method_in_brief": "as §1"}, "[7]": {"biological_target": "Neu5Ac(a2-6)Gal(b1-4)GlcNAc(b1-2)Man(a1-6)[Gal(b1-4)GlcNAc(b1-2)Man(a1-3)]Man(b1-4)GlcNAc(b1-4)GlcNAc", "method_in_brief": "as §1"}, "[8]": {"biological_target": "Neu5Ac(a2-6)Gal(b1-4)GlcNAc(b1-2)Man(a1-6)[GlcNAc(b1-2)Man(a1-3)]Man(b1-4)GlcNAc(b1-4)GlcNAc", "method_in_brief": "as §1"}, "[9]": {"biological_target": "Neu5Ac(a2-6)Gal(b1-4)GlcNAc(b1-3)Gal(b1-4)GlcNAc", "method_in_brief": "as §1"}, "[10]": {"biological_target": "Neu5Ac(a2-6)Gal(b1-4)GlcNAc(b1-3)Gal(b1-4)[Fuc(a1-3)]GlcNAc(b1-3)Gal(b1-4)[Fuc(a1-3)]GlcNAc", "method_in_brief": "as §1"}, "[11]": {"biological_target": "Neu5Ac(a2-6)Gal(b1-4)GlcNAc6S", "method_in_brief": "as §1"}, "Neu5Ac(a2-6)GalNAc": {"biological_target": "Neu5Ac(a2-6)GalNAc", "method_in_brief": "as §1"}, "[12]": {"biological_target": "Neu5Ac(a2-6)GalNAc(b1-4)GlcNAc", "method_in_brief": "as §1"}, "Neu5Ac(a2-8)Neu5Ac": {"biological_target": "Neu5Ac(a2-8)Neu5Ac", "method_in_brief": "as §1"}, "[13]": {"biological_target": "Neu5Ac(a2-8)Neu5Ac(a2-3)Gal(b1-4)Glc", "method_in_brief": "as §1"}, "[14]": {"biological_target": "Neu5Ac(a2-8)Neu5Ac(a2-3)[GalNAc(b1-4)]Gal(b1-4)Glc", "method_in_brief": "as §1"}, "[15]": {"biological_target": "Neu5Ac(a2-8)Neu5Ac(a2-8)Neu5Ac", "method_in_brief": "as §1"}, "[16]": {"biological_target": "Neu5Ac(a2-8)Neu5Ac(a2-8)Neu5Ac(a2-3)Gal(b1-4)Glc", "method_in_brief": "as §1"}, "[17]": {"biological_target": "Neu5Ac(a2-8)Neu5Ac(a2-8)Neu5Ac(a2-3)[GalNAc(b1-4)]Gal(b1-4)Glc", "method_in_brief": "as §1"}, "[18]": {"biological_target": "Neu5Ac(a2-8)Neu5Ac(a2-8)Neu5Ac(a2-8)Neu5Ac(a2-3)[GalNAc(b1-4)]Gal(b1-4)Glc", "method_in_brief": "as §1"}, "Neu5Ac(b1-6)GalNAc": {"biological_target": "Neu5Ac(b1-6)GalNAc", "method_in_brief": "as §1"}, "[19]": {"biological_target": "Neu5Ac(b2-6)Gal(b1-4)GlcNAc", "method_in_brief": "as §1"}, "Neu5Ac(b2-6)GalNAc": {"biological_target": "Neu5Ac(b2-6)GalNAc", "method_in_brief": "as §1"}, "[20]": {"biological_target": "Neu5Ac9Ac(a2-6)Gal(b1-4)GlcNAc", "method_in_brief": "as §1"}, "[21]": {"biological_target": "Neu5Gc(a2-3)Gal(b1-3)GlcNAc", "method_in_brief": "as §1"}, "[22]": {"biological_target": "Neu5Gc(a2-3)Gal(b1-3)[Fuc(a1-4)]GlcNAc", "method_in_brief": "as §1"}, "Neu5Gc(a2-3)Gal(b1-4)Glc": {"biological_target": "Neu5Gc(a2-3)Gal(b1-4)Glc", "method_in_brief": "as §1"}, "[23]": {"biological_target": "Neu5Gc(a2-3)Gal(b1-4)GlcNAc", "method_in_brief": "as §1"}, "[24]": {"biological_target": "Neu5Gc(a2-3)Gal(b1-4)[Fuc(a1-3)]GlcNAc", "method_in_brief": "as §1"}, "[25]": {"biological_target": "Neu5Gc(a2-6)Gal(b1-4)GlcNAc", "method_in_brief": "as §1"}, "Neu5Gc(a2-6)GalNAc": {"biological_target": "Neu5Gc(a2-6)GalNAc", "method_in_brief": "as §1"}, "[26]": {"biological_target": "Neu5Gc(b2-6)Gal(b1-4)GlcNAc", "method_in_brief": "as §1"}}, "note": "Some of the results follow.", "data": [{"binder": "E-Selectin (Homo sapiens), P16581 (protein) MIASQFLSALTLVLLIKESGAWSYNTSTEAMTYDEASAYCQQRYTHLVAIQNKEEIEYLNSILSYSPSYYWIGIRKVNNVWVWVGTQKPLTEEAKNWAPGEPNNRQKDEDCVEIYIKREKDVGMWNDERCSKKKLALCYTAACTNTSCSGHGECVETINNYTCKCDPGFSGLKCEQIVNCTALESPEHGSLVCSHPLGNFSYNSSCSISCDRGYLPSSMETMQCMSSGEWSAPIPACNVVECDAVTNPANGFVECFQNPGSFPWNTTCTFDCEEGFELMGAQSLQCTSSGNWDNEKPTCKAVTCRAVRQPQNGSVRCSHSPAGEFTFKSSCNFTCEEGFMLQGPAQVECTTQGQWTQQIPVCEAFQCTALSNPERGYMNCLPSASGSFRYGSSCEFSCEQGFVLKGSKRLQCGPTGEWDNEKPTCEAVRCDAVHQPPKGLVRCAHSPIGEFTYKSSCAFSCEEGFELHGSTQLECTSQGQWTEEVPSCQVVKCSSLAVPGKINMSCSGEPVFGTVCKFACPEGWTLNGSAARTCGATGHWSGLLPTCEAPTESNIPLVAGLSAAGLSLLTLAPFLLWLRKCLRKAKKFVPASSCQSLESDGSYQKPSYIL", "values": [{"measurement": "glycan array binding signal (z-score)", "setting": "[1]", "value": -0.134}, {"measurement": "glycan array binding signal (z-score)", "setting": "Neu5Ac(a2-6)Gal", "value": -0.129}, {"measurement": "glycan array binding signal (z-score)", "setting": "Neu5Ac(a2-6)Gal(b1-4)Glc", "value": -0.086}, {"measurement": "glycan array binding signal (z-score)", "setting": "[2]", "value": -0.166}, {"measurement": "glycan array binding signal (z-score)", "setting": "[3]", "value": -0.204}, {"measurement": "glycan array binding signal (z-score)", "setting": "[4]", "value": -0.145}, {"measurement": "glycan array binding signal (z-score)", "setting": "[5]", "value": -0.135}, {"measurement": "glycan array binding signal (z-score)", "setting": "[6]", "value": -0.149}, {"measurement": "glycan array binding signal (z-score)", "setting": "[7]", "value": -0.253}, {"measurement": "glycan array binding signal (z-score)", "setting": "[8]", "value": -0.282}, {"measurement": "glycan array binding signal (z-score)", "setting": "[9]", "value": -0.141}, {"measurement": "glycan array binding signal (z-score)", "setting": "[10]", "value": -0.077}, {"measurement": "glycan array binding signal (z-score)", "setting": "[11]", "value": 0.107}, {"measurement": "glycan array binding signal (z-score)", "setting": "Neu5Ac(a2-6)GalNAc", "value": -0.201}, {"measurement": "glycan array binding signal (z-score)", "setting": "[12]", "value": -0.117}, {"measurement": "glycan array binding signal (z-score)", "setting": "Neu5Ac(a2-8)Neu5Ac", "value": 0.062}, {"measurement": "glycan array binding signal (z-score)", "setting": "[13]", "value": -0.078}, {"measurement": "glycan array binding signal (z-score)", "setting": "[14]", "value": -0.1}, {"measurement": "glycan array binding signal (z-score)", "setting": "[15]", "value": -0.021}, {"measurement": "glycan array binding signal (z-score)", "setting": "[16]", "value": -0.175}, {"measurement": "glycan array binding signal (z-score)", "setting": "[17]", "value": -0.132}, {"measurement": "glycan array binding signal (z-score)", "setting": "[18]", "value": -0.09}, {"measurement": "glycan array binding signal (z-score)", "setting": "Neu5Ac(b1-6)GalNAc", "value": -0.129}, {"measurement": "glycan array binding signal (z-score)", "setting": "[19]", "value": -0.251}, {"measurement": "glycan array binding signal (z-score)", "setting": "Neu5Ac(b2-6)GalNAc", "value": -0.231}, {"measurement": "glycan array binding signal (z-score)", "setting": "[20]", "value": -0.181}, {"measurement": "glycan array binding signal (z-score)", "setting": "[21]", "value": -0.199}, {"measurement": "glycan array binding signal (z-score)", "setting": "[22]", "value": 12.1}, {"measurement": "glycan array binding signal (z-score)", "setting": "Neu5Gc(a2-3)Gal(b1-4)Glc", "value": -0.023}, {"measurement": "glycan array binding signal (z-score)", "setting": "[23]", "value": -0.191}, {"measurement": "glycan array binding signal (z-score)", "setting": "[24]", "value": 0.141}, {"measurement": "glycan array binding signal (z-score)", "setting": "[25]", "value": -0.223}, {"measurement": "glycan array binding signal (z-score)", "setting": "Neu5Gc(a2-6)GalNAc", "value": -0.239}, {"measurement": "glycan array binding signal (z-score)", "setting": "[26]", "value": -0.187}]}]}
